In all, about 33,000 sequences were measured (“E-score (-0.5 to 0.5)”: median about -0.021, highest 2% from about 0.32 on). This is one part of the list.
These sequences were tested against T1, Zap1 (UniProt P47043) (assay: PBM E-score (8-mer binding enrichment) (E-score (-0.5 to 0.5)); higher = stronger / more preferred TF binding; most listed sequences are background and not binding sites). Conditions: protein concentration: 200 nM; construct: GST-full length.
T1 sequence: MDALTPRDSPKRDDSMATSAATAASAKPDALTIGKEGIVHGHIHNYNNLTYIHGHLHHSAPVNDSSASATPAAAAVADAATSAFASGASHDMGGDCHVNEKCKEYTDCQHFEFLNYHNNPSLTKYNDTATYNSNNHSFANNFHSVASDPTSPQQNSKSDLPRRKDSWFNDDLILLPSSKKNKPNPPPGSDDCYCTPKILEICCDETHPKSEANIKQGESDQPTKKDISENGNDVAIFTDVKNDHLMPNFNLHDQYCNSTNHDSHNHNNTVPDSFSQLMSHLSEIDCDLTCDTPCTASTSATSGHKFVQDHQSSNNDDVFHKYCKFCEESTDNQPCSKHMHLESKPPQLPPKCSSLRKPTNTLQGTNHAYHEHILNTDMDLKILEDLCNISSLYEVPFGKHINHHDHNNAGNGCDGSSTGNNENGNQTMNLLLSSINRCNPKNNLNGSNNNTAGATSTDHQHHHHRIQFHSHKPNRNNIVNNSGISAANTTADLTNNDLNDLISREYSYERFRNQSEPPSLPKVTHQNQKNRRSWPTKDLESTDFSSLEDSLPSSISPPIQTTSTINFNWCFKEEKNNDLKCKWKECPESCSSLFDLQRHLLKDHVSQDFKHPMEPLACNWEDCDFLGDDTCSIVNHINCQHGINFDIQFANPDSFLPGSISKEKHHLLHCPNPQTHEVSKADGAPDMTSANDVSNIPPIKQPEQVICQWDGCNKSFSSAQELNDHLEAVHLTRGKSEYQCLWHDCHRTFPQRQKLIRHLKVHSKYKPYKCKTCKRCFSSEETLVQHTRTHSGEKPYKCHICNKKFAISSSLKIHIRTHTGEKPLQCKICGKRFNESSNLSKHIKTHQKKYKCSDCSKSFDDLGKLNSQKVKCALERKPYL
Method in brief: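 For each ungapped eight-base word taken together with its reverse complement, the Universal PBM Analysis Suite assigned an E-score. Binding data came from GST-tagged yeast transcription factors, applied at about 100-200 nM, on universal all-10-mer Agilent arrays made double-stranded by primer extension. Fluorescent anti-GST marked bound protein, and scans were normalised with masliner.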

Point of comparison: CATCGTGA, “PBM E-score” value -0.113. Against it:
- CCTATTTA — higher, 0.137
- ACCGCACT — higher, 0.109
- AGGAACCC — higher, 0.104
- AATAACAG — higher, 0.118
- CAACAGGA — lower, -0.148
- CTACGGGA — lower, -0.137
- ATACCCGC — higher, 0.314
- AGTCGAAG — lower, -0.26
- ACCTCGCT — higher, 0.216
- GTTCGAAC — higher, 0.0684
- ATGCTCTC — lower, -0.152
- ACGTGGCG — lower, -0.159
- CTTAAGGA — higher, 0.119
- TATATAGA — higher, 0.146
- AGGTGCGG — higher, -0.111
- AAACATTT — higher, 0.148
- AAGACAGA — higher, 0.0381
- ATCGAAAG — higher, 0.134
- GGTGCACA — lower, -0.187
- AGTATGAG — higher, 0.105
- AGGCCGCG — higher, 0.169
- CAAACTCG — higher, 0.0533
- ATTCGCAC — higher, -0.0943
- CGTTAGAC — higher, -0.0653
- GATAGAGA — lower, -0.186
- ACCGGAAT — higher, 0.051
- GAACGGAA — higher, -0.0451
- CAAATGAG — higher, 0.0449
- AAAACGAA — higher, 0.0788
- AGCCCGTC — lower, -0.312
- CGGATGCC — higher, -0.0188
- AATATTGG — higher, 0.097
- AATGGTTG — higher, 0.254
- GCCACCCC — lower, -0.133
- ACAGACGT — higher, -0.0189
- CATTGATA — higher, -0.00204
- TGAAGTCA — lower, -0.193
- CACATATA — higher, 0.0322
- CCCTGGAC — higher, 0.0556
- GCCTATTA — higher, -0.0352
- CACGACAG — higher, -0.072
- CATGAACA — higher, 0.00617
- AATTCTCC — higher, 0.039
- CCCTGTCG — higher, 0.0766
- ATCAGGTA — higher, 0.276
- AGCCTAAA — higher, 0.232
- ATAGTGAG — lower, -0.19
- AAGTGGAC — higher, -0.0733
- CACATGCA — higher, 0.16
- ACATGCGC — higher, -0.044
- AAGGGGAC — higher, 0.0133
- TGCTATAA — higher, -0.0162
- AATAAATT — higher, 0.164
- ACGCGCTC — lower, -0.174
- CACCATGG — lower, -0.124
- GTAATCTA — higher, 0.233
- ATCTACAA — higher, -0.0277
- AAAAGATC — higher, -0.0403
- TGAAGTAA — higher, -0.0217
- ACTTAACC — higher, 0.287
- GAGCTCCC — lower, -0.147
- ATCAGGAG — higher, 0.048
- AGCGCCAC — lower, -0.148
- CTTATTCC — lower, -0.148
- AGCTTCAC — higher, 0.019
- CGGCGACC — higher, -0.0355
- TACCTGGA — higher, 0.197
- ATACAGAC — higher, 0.119
- ATAGAGAC — higher, -0.0562
- GAGATAAC — higher, 0.0722
- GTAGATCA — higher, 0.0539
- GTAAGTAA — higher, 0.12
- CGAGTAGC — lower, -0.154
- ATACAACA — higher, 0.0913
- GTAGGCTA — lower, -0.134
- AGAGCTCC — lower, -0.213
- ACAAACGG — higher, 0.134
- ACTCACTA — higher, 0.0494
- ATCGGCAG — lower, -0.203
- CTGTGAAC — higher, -0.066
- CTTTAGCC — lower, -0.174
- GGCCCCTA — higher, 0.0129
- ATAGTGGA — higher, -0.0242
- CGTTCGTC — higher, -0.0789
- GACAACGA — higher, -0.0883
- ATCAATAC — higher, 0.152
- GAGATGCC — lower, -0.299
- CCCTTATC — higher, 0.0309
- TAGGTCGA — higher, 0.0436
- AAGGACGC — higher, 0.0453
- ATGAAAAA — higher, 0.259
- ACCGGTCT — higher, -0.0074
- AGTTTCAG — lower, -0.198
- ACGGCTAC — higher, -0.0512
- CAGTTAAG — higher, 0.0515
- CCGGACCC — higher, 0.0912
- AAGCGCGT — lower, -0.206
- ACATTCGC — higher, -0.0674
- AAGAGTAG — higher, -0.0365
- ACCAACGT — higher, -0.0568
- CGTGAAGC — lower, -0.326
- TGAGGAAA — higher, 0.022
- AAGTGGGT — higher, 0.0704
- ATAGGGAA — lower, -0.13
- GGCACTCA — lower, -0.373
- CAGCATGC — lower, -0.154
- ATGGCTCG — higher, 0.00687
- CGACAAGA — higher, -0.0244
- ATCCTTCC — lower, -0.306
- CTCACTCA — higher, -0.109
- TGCGCGCA — higher, -0.107
- AGAACTAC — higher, 0.0953
- CACCGCTG — higher, 0.0324
- GAAGCCAA — lower, -0.174
- CGCAAAGA — higher, 0.13
- ATTAATGC — higher, -0.0271
- ACCCGCTC — higher, -0.0534
- GAATGCAC — higher, -0.0636
- CACAAGAG — higher, -0.0124
- ATGGATCG — higher, 0.0279
- GCTGCTCA — lower, -0.151
- CTCGACGC — higher, 0.0682
- TAAGATTA — higher, -0.0109
- CCAGATGG — higher, 0.05
- CCATCTAC — lower, -0.147
- ACTATAGC — lower, -0.242
- CTGTACAC — lower, -0.158
- ACGTTCAC — lower, -0.226
- CGGAAATC — higher, -0.0168
- CCGGACAG — higher, -0.0732
- CATAGAGA — higher, 0.0389
- CAATTACA — higher, -0.042
- ACCACCGC — higher, 0.147
- AATGGCAA — higher, 0.125
- AGACGCTA — lower, -0.167
- CCCGGAAG — higher, 0.154
- CCCGCCTC — higher, -0.0685
- AGGTCACG — higher, 0.406
- GGTAGGAC — higher, -0.00322
- ATAGCGGC — lower, -0.116
- ATATTAGC — higher, 0.0529
- AATGACAC — lower, -0.221
- CCTAGCAC — higher, -0.0627
- CGGTCATA — higher, 0.201
- AAGCACGT — lower, -0.3
- TAGCAAGA — higher, -0.0851
- GCTACTAC — higher, 0.108
- ATTTGGAC — higher, -0.0184
- GCAATCAA — higher, 0.0754
- CCGCGACA — higher, 0.181
- ATTACCCC — higher, 0.316
- GGTGAGGA — higher, 0.0577
- TACAATGA — higher, 0.0619
- CTAAATAA — higher, 0.254
- AGGATCAT — higher, 0.169
- AATCGCCC — lower, -0.167
- GCGGGGTA — higher, 0.293
- AGCCCGGG — lower, -0.128
- ATGCGGCG — higher, -0.0249
- AATCCAGA — higher, 0.101
- GTCCTGAA — higher, 0.0284
- AACATTCT — higher, 0.0247
- CTGGACAC — higher, 0.0291
- AACTCGTG — higher, 0.0591
- AAACTGTT — higher, 0.00368
- CAGAAGAA — lower, -0.133
- TCGGACGA — lower, -0.154
- ACTAAAAT — higher, 0.114
- AGCAACTG — higher, -0.00851
- CTATTCCA — higher, 0.0678
- GCTATTCA — higher, -0.018

Reference: the supplement of paper PMC3334620
